Results taken from ChEMBL document CHEMBL4888484, “Replenishing the malaria drug discovery pipeline: Screening and hit evaluation of the MMV Hit Generation Library 1 (HGL1) against asexual blood stage Plasmodium falciparum ,using a nano luciferase reporter read-out” (2022).
Hit rate of the full screen: of about 150,000 compounds, about 540 (0.36%) showed an effect of 50% or more. The list shows a part of the results.

Test system: Plasmodium falciparum
Test: Primary screen in NF54 nanoGlo assay, in single point, at 2uM, 72h; a lower Z score goes with more inhibition
Type: functional, Erythrocyte
Conditions: timepoint 72 hour

Row | SMILES | % Inhibition | Z score
1 | C=CCn1c(C(=O)N2CCC(C)CC2)cc2c(OCc3cccc(C)c3)cccc21 | -10% | 1.74
2 | Cc1ccc(CN2C(=O)CN(S(=O)(=O)c3ccccc3)C[C@@]2(C)C(=O)NCCC(C)C)cc1 | -7% | 0.88
3 | CCc1nnc([C@@H]2CCCN2S(=O)(=O)c2cccs2)[nH]1 | -11% | 1.39
4 | Cc1ccc2nc(-c3ccc(N4C(=O)C[C@H](N5CCC(C)CC5)C4=O)cc3)sc2c1 | -8% | 1.52
5 | CC1(C)C[C@H](O)c2cccc(NCC(=O)N3CCNC3=O)c2O1 | -2% | 0.41
6 | CCOc1cc(C(=O)NC[C@@H]2C[C@H]2c2cccnc2)n[nH]1 | 2% | -0.29
7 | CC[C@H](NC1CCN(c2ncnc3[nH]cnc23)CC1)c1ccnn1C | -11% | 1.67
8 | CC(NC1CCCC2(CC2)C1)c1nccn1-c1ccccc1 (stereo not drawn) | -9% | 1.02
9 | CCc1cnc(C)nc1-c1ccc(C(=O)N(C)CCc2noc(C)n2)cc1 | -8% | 0.78
10 | CN1CCC(CN(CCc2ccccc2)C(=O)CN2CCCCC2)CC1 | -15% | 1.8
11 | CC(C)c1ncsc1C(=O)N1CC(C)(C)[C@@H]1C1CC1 | 3% | -0.29
12 | CCc1nnc(-c2cccn2CC(=O)Nc2ccccc2CC)o1 | -17% | 1.72
13 | CNCCOc1ccc(Cl)c(Cl)c1 | 1% | -0.09
14 | CCCNc1ncc(CN2C[C@H](OC)[C@@H](O)C2)cn1 | -20% | 2.16
15 | O=C(c1cc(S(=O)(=O)N2CCCC2=O)c(Cl)cc1Cl)N1CCOCC1 | -10% | 1.99
16 | COCCN(C)Cc1ccc(CC2CCN(C(=O)c3ccc(O)nc3)CC2)cc1 | -7% | 1.3
17 | Cc1cn2c(n1)CC[C@H](NCCC(C)(C)C)C2 | -15% | 1.92
18 | CCOC(C)(C)CS(=O)(=O)NC[C@H](C)c1nccs1 | -9% | 0.92
19 | O=C(NC1CCCC1)N1CCC[C@H](C(=O)N2CCCc3n[nH]cc32)C1 | -2% | 0.22
20 | C[C@]1(c2cccnc2)NC(=O)N(CCOc2cccc(Br)c2)C1=O | 5% | -0.86
21 | CC(c1ncc(C(C)(C)C)o1)N(C)CC1CCCOC1 (stereo not drawn) | 1% | -0.08

Row | SMILES | % Inhibition | Z score
22 | O=C1C[C@@H](C(=O)Nc2ccc3c(c2)OCO3)c2c(nc(N3CCOCC3)[nH]c2=O)N1 | -13% | 1.57
23 | CCOC(=O)c1cnc(NCCn2ccnc2C)s1 | -12% | 1.57
24 | CCc1c(C(N)=O)cnn1-c1ccc(NC(=O)c2cc(F)cc(F)c2)cc1 | -23% | 4.5
25 | CN(CC1(c2ccccc2)CC1)C(=O)NC1CCCC1CCO (stereo not drawn) | -4% | 0.6
26 | CCOC(=O)C(Cc1ccccn1)NC(=O)C1CCCC(F)(F)C1 (stereo not drawn) | -11% | 2.19
27 | CCCOC[C@H]1CCN(C(=O)CN2CCOCC2)C1 | -5% | 0.72
28 | O=C(c1nnc(N2CCC(N3CCCCC3)CC2)n1CC1CC1)N1CCCC1 | -12% | 1.27
29 | O=C1c2ccccc2C(=O)N1CCCCN(C(=O)c1ccc(S(=O)(=O)N2CCCC2)cc1)c1ccc(F)cc1F | -5% | 0.98
30 | Cc1cnc(C2CCN(C(=O)c3cscn3)CC2)n1[C@H](C)CO | -3% | 0.53
31 | Cc1cnc(C)c(NCC2CC(O)CN2Cc2ccccc2)n1 (stereo not drawn) | -9% | 1.23
32 | CCC(CC)C(=O)Nc1ccc(Oc2cc(C(=O)O)nn2C)c(S(=O)(=O)NCC(C)C)c1 | -19% | 1.71
33 | COCC(=O)N(Cc1cccc(C)c1)c1ccc(CC(=O)NCCN(C)C)cc1 | -8% | 1.07
34 | COc1nc2c(c(C)nn2-c2cccc(F)c2)c(C)c1CCC(=O)NCc1ccc(F)cc1 | -9% | 1.26
35 | O=C(NCCc1cnc(O)nc1)[C@@H]1Cc2cc(F)ccc2O1 | 0% | 0.06
36 | CC(C)c1nc(CN2CCc3nocc3C2)co1 | -12% | 1.19
37 | CC[C@H](C)[C@@H]1NC(=O)N(Cc2coc(-c3ccccc3)n2)C1=O | -1% | 0.14
38 | O=C1CCCN1CCCC(=O)N1CCO[C@@H](Cc2cccc3ccccc23)C1 | 1% | -0.23
39 | COc1ccccc1OCc1ccc(C(=O)N2N=CC[C@]2(O)C(F)(F)F)cc1 | -38% | 4.45
40 | COc1cccc(Oc2nc(N3CCCCC3)nc3c2CN(Cc2cc(OC)c(OC)c(OC)c2)CC3)c1 | -9% | 1.3
41 | CS(=O)(=O)N1CCc2nc(NC(=O)c3ccc(=O)[nH]n3)sc2C1 | -16% | 2.27
42 | Cc1ccc(C)c(S(=O)(=O)NC[C@H](O)c2ccc3c(c2)CCO3)c1 | -17% | 2.14

Row | SMILES | % Inhibition | Z score
43 | O=C1NCCCCCCN(Cc2ccncc2)[C@@H]2CN(S(=O)(=O)c3cccc4nsnc34)CC[C@@H]12 | -5% | 0.75
44 | CN(Cc1cscn1)C(=O)CCN1CCN(c2ccccc2)CC1 | -7% | 1.02
45 | COc1cccc(NC(=O)c2ccc3c(c2)nnn3C2CCCC2)c1 | -14% | 1.85
46 | COc1ncnc(OC)c1S(=O)(=O)N1CCOCC1 | -7% | 0.81
47 | COCCc1noc(CNC(=O)c2cc(Cl)cn2C)n1 | -5% | 1.05
48 | O=C(NC[C@H]1CCCN(c2ccncc2F)C1)C1CCOCC1 | 0% | -0.07
49 | N#Cc1cnc(-c2ccc(F)cc2)n(CC(=O)N2CCN(c3ccccc3)CC2)c1=O | -10% | 1.32
50 | CN(C)c1noc(CNC(=O)NCC(F)(F)F)n1 | -5% | 0.91
51 | CC1(C#N)CCN(Cc2cc(C(C)(C)C)[nH]n2)CC1 | 4% | -0.56
52 | CC1C[S+]([O-])CCN1C(=O)COc1ccc(Cl)cc1Cl (stereo not drawn) | 5% | -0.58
53 | COc1ccc(CN2C(=O)N[C@@H](CCC(=O)Nc3nccs3)C2=O)cc1OC | -3% | 0.4
54 | CCN(CC)CCOc1ccc(CN2C(=O)CN(C3CC3)C2=O)cc1 | -4% | 0.88
55 | COc1cccnc1N(C)C(=O)C1CC(C)OC(C)C1 (stereo not drawn) | 14% | -1.57
56 | COc1cccc(-c2ccc(N3CCCN(C(=O)CN(Cc4ccc(F)cc4)C(=O)c4ccc(Cl)cc4)CC3)nn2)c1 | -12% | 1.18
57 | COCCn1ccc(C(=O)N2CC(C)CC2c2ccc(OC)cc2)n1 (stereo not drawn) | -2% | 0.26
58 | CCCS(=O)(=O)N1CCC[C@H](c2nnc(-c3cccs3)o2)C1 | -14% | 2.59
59 | COc1cc(C(=O)N[C@H]2CS(=O)(=O)C[C@@H]2OC)ccn1 | 1% | -0.2
60 | Cn1nccc1[C@H](CO)NC(=O)c1cccc2c1CCOC2 | -2% | 0.39
61 | Cc1nc(NC(=O)NCC(=O)NC2CC2)ccc1Br | 0% | -0.05
62 | O=C(CCC(=O)N1CCCCCC1)NCc1cccs1 | 37% | -0.96
63 | CC(C)c1nc(C(C)NC(=O)C2COCCO2)cs1 (stereo not drawn) | -5% | 0.55

Row | SMILES | % Inhibition | Z score
64 | COc1ccc([C@H]2C3CCCCC3(O)CCN2CC(=O)NCc2ccco2)cc1 (stereo partly drawn) | -8% | 1.19
65 | Cc1c(C(=O)N2CCC[C@H]2c2nnc3ccccn23)oc2ccccc12 | -15% | 2.66
66 | Cc1c[nH]c(CNC(=O)c2coc(COc3ccc(F)cc3)n2)n1 | 1% | -0.11
67 | CCN(CC)C(=O)NCc1c(C)cc(C)[nH]c1=O | -3% | 0.39
68 | O=C(Nc1ccc(S(=O)(=O)Nc2cccc3ccccc23)cc1)c1ccccc1 | -13% | 1.68
69 | C=C[C@H](CO)NC(=O)c1cc(Br)cnc1C1CC1 | 3% | -0.46
70 | Cc1cnc(C[C@H]2CCN(C(=O)c3ccncc3)C2)n1CC1CC1 | -5% | 0.67
71 | Fc1cnc(/C=C/c2ccccc2)nc1N1CCOCC1 | -2% | 0.33
72 | CC(C)(C)OC(=O)N1CCN(c2nnc(N)s2)CC1 | -11% | 1.2
73 | Cc1occc1C(=O)NCCc1cccc2cccnc12 | -9% | 1.4
74 | O=c1c(S(=O)(=O)N2CCCC2)cccn1Cc1noc(-c2ccco2)n1 | -4% | 0.46
75 | COCc1cccc(C(=O)N2CCOc3ncccc32)c1 | -5% | 0.6
76 | Cc1cc(C(=O)NC2CCN(C(C)C)C2c2ccc(F)c(F)c2)no1 (stereo not drawn) | 6% | -0.7
77 | CC[C@H](C)c1cc(C(=O)N(C)c2ccccc2S(C)(=O)=O)on1 | -4% | 0.65
78 | Cn1cc(Cl)c(-c2nc3c(cnn3Cc3cccnc3)[nH]2)n1 | 0% | 0
79 | Cc1cc(C)c2c(CC(=O)N3CCC(c4nnc(N)[nH]4)CC3)coc2c1C | -6% | 0.81
80 | CCC(=O)N[C@@H]1c2ccccc2C2(CCN(C(=O)C3=C(C)OCCO3)CC2)[C@H]1OCc1cccnc1 | 12% | -1.53
81 | COC[C@H](C)NC(=O)C1(N2C(=O)c3ccccc3C2=O)CCCC1 | 17% | -1.99
82 | CCn1cc(CN2CCC(O)(c3cc(OC)cc(OC)c3)CC2)cn1 | -15% | 2.68
83 | CCCc1cc(N2CCC[C@H](c3nnc(Cn4ccnc4)n3C)C2)nc(C)n1 | -6% | 0.74
84 | CC1OCCC1C(=O)N1CCC=Cc2ccccc21 (stereo not drawn) | -3% | 0.41
